Results as given in patent US20230322887A1 (SHANGHAI MINWEI BIOTECHNOLOGY, published 2023).

What was measured:
human glucagon receptor = human glucagon receptor (human, UniProt P47871); assay: cell-based or functional assay
human GLP-1 receptor = human GLP-1 receptor (human, UniProt P43220); assay: cell-based or functional assay

EC50 human glucagon-R (CRE-luciferase reporter cells) (human glucagon receptor): 0.32 nmol/L | EC50 human GLP-1R (CRE-luciferase reporter cells) (human GLP-1 receptor): 0.57 nmol/L
B1: Fc fusion protein 1 (Fc fusion)
chain: HSQGTFTSDYSKYLDEQAAKEFIAWLIAGGPSSGAPPPSGGGGGSGGGGSGGGGSA[human IgG4 Fc with S228P F234A L235A (EU numbers) omitted]

EC50 human glucagon-R (CRE-luciferase reporter cells) (human glucagon receptor): 0.59 nmol/L | EC50 human GLP-1R (CRE-luciferase reporter cells) (human GLP-1 receptor): 1.23 nmol/L
B2: Fc fusion protein 2 (Fc fusion)
chain: B1 chain with A18R, E21D

EC50 human glucagon-R (CRE-luciferase reporter cells) (human glucagon receptor): 0.63 nmol/L | EC50 human GLP-1R (CRE-luciferase reporter cells) (human GLP-1 receptor): 3.49 nmol/L
B3: Fc fusion protein 3 (Fc fusion)
chain: B1 chain with A18R, I23V

Positions count from the first letter of the chain named. One block for each binder: values may come before it.
